Experimental data as given in publication PMC12136788.
Some of the results follow.

B1: chr5:143849297:143849298:-_ENSMUSG00000045078_ENSMUST00000053498|mus_mus|FALSE|FALSE (ssRNA)
RNA: GGGAGUUCUACAGUCCGACGAUCUACAUUCAAAUCAUAGUAAUUUUUCAAAUGAAUUAUUUCUUCAACAUAUCCACUUGCUACAUCUGGAAAUCUUGCUUCCGUUUCUUUCACUAACAGUGGAAUGAGGUCUUGAUCUACCUCCAACAGAGGAUUGAGCAUCA
B2: chr5:162900210:162900211:+_ENSG00000072571_ENST00000358715|hu_hu|FALSE|FALSE (ssRNA)
RNA: GGGAGUUCUACAGUCCGACGAUCUUCGAUGUAUUCCAAGAGUUUUUCUGUUUCAGAUUUUUCAUCAAUCUUUUCUUUCUCUAUUGAAACAAGUUUUCCCUCCAGUUGGGCUAUUUUCCCUUGAGACUCUUCGAGACUCCUUUGCAACAGAGGAUUGAGCAUCA
B3: chr16:83842930:83842931:+_ENSG00000230989_ENST00000433866|hu_mus|FALSE|FALSE (ssRNA)
RNA: GGGAGUUCUACAGUCCGACGAUCUUCUUCUACUCCAGCCUGGGUCAUGAGGUCAGCGAUAUUCUUCUCCAGGUCGUCAAUCCGACUGCUCAUGUCAUCUAUCCUUCCGAUGAUCUGGUCUGACAUGAUCUGAAACUUGUCUUGCAACAGAGGAUUGAGCAUCA
B4: chr1:65217810:65217811:-_ENSMUSG00000025950_ENSMUST00000097709|mus_mus|motif|central (ssRNA)
RNA: GGGAGUUCUACAGUCCGACGAUCAGCCUCUGCAGCAUCUUUGGUGACCUGGUCAUUGGUGGCAUCACGAUUCUCGGUGCCGGAAUCAUAGCUAUGCAGAUCCAGUUCCACAUAGGGAAGAAUAAGUUUUUCCUUAAUCAAUUCCAACAGAGGAUUGAGCAUCA
B5: chr12:39687547:39687548:-_ENSG00000139116_ENST00000551264|hu_mus|FALSE|FALSE (ssRNA)
RNA: GGGAGUUCUACAGUCCGACGAUCUUAGGAAAUCAACAGCUCACCGUCCCAGAAUCCGUGCCCAGCACUAACAACACAACGUCUACGCAGCAUUUCAAUCCUGAGCACAGAAUGAAGAACAACUGAAAGCUUUGGUCAAUACAGCAACAGAGGAUUGAGCAUCA
B6: 152987051_152987171_73_3pUTR_ENSMUSG00000068040_ENSMUST00000089027|mouse|control|control (ssRNA)
RNA: GGGAGUUCUACAGUCCGACGAUCUAAAAGAAGCUUAAUUUCUCCUUGGCAGAUUGGCCUUGGCAGUGAGGUCUCUGACUAGGUGAAGAGAACGUACGGUGUAACUAUUGGAGCCAUAUUGACUUCUGGCAGACCCGCUCCUCCCAACAGAGGAUUGAGCAUCA
B7: 119145625_119146788_1267_3pUTR_ENSG00000110395_ENST00000264033|human|control|control (ssRNA)
RNA: GGGAGUUCUACAGUCCGACGAUCUGUCUGGAGAAUGUUCCCAUCAGCAGUAACAUACCCAAUAGCCCACUGACCCAGACGAGUACAGCUCAGCCGGAAGAUAUAACUGCCAGGUUUGUGAAUGAAUUUCUGGAGCCGAGCUUUCAACAGAGGAUUGAGCAUCA
B8: chr8:104447970:104447971:+_ENSG00000164934_ENST00000297579|hu_hu|hu_hu_hu_mus_False|8_88 (ssRNA)
RNA: GGGAGUUCUACAGUCCGACGAUCAUACACUUCCCUGCUUCGGCUCUUGUCUACAGGAAAGAUUCUAAUAGACUUAUCAAAGCUGGCAGACACAAAUUCCUUCCCAGUGGGAGAGUAGUCCACAUCAAGCACUGCAGACACGUGCAACAGAGGAUUGAGCAUCA
B9: chr2:91613138:91613139:+_ENSMUSG00000040506_ENSMUST00000045705|mus_mus|FALSE|FALSE (ssRNA)
RNA: GGGAGUUCUACAGUCCGACGAUCCUGCUGUCUCAGUACAGAAAGCAAACUCACUGAGGAGGCACUGGUCCUCGGUGGGGGCAUAGAUUCUACCUCAGAACGAGAGUUCAGAGUGAGUACUGUCCGGGUCCACUCAGAACCUGUCAACAGAGGAUUGAGCAUCA
B10: chr1:50642785:50642786:+_ENSG00000162374_ENST00000371827|hu_hu|FALSE|FALSE (ssRNA)
RNA: GGGAGUUCUACAGUCCGACGAUCAGUGUUGAUGGCUUUCUCUGCAUCCUUUGGAUCAAUAUAGUUAACAAAUCCAUACCCUAAACUCUGUCCUGUAAUUUUGUCUCUCACAAGUUUGCAGGAUUCUAUUUCACCAAUGCUCCCCAACAGAGGAUUGAGCAUCA
B11: chr14:15598107:15598108:+_ENSMUSG00000021733_ENSMUST00000057015|perfect_dup|FALSE|FALSE (ssRNA)
RNA: GGGAGUUCUACAGUCCGACGAUCUUGCCCAGCAAACAAUGAAUAGGCAAUCCCAGUUAAUGACGCUCCAAAAAGAGACUCUAUUGCACUUAUUCUGCCUUCUGUAGCUUCUCCAAGCAGCCCUCCAAAAGUGAUUACAGGAGACAACAGAGGAUUGAGCAUCA
B12: chr7:141438946:141438947:+_ENSG00000106028_ENST00000265304|hu_mus|hu_hu_hu_mus_True|38_78 (ssRNA)
RNA: GGGAGUUCUACAGUCCGACGAUCGACGAAAUACCUGUAACACAGGUCUUCGAAACAUUCUAUUUUCUUUUCUUACAACCUAAUCUUUAGGCUUUUCCUGACGAUCUGAAAGAAAAGAGAAAAAUGAUAAAUCAAGAAACUACACAACAGAGGAUUGAGCAUCA
B13: chr3:55862657:55862658:-_ENSMUSG00000027799_ENSMUST00000029374|mus_hu|FALSE|FALSE (ssRNA)
RNA: GGGAGUUCUACAGUCCGACGAUCUGAUGAUUCCAGGCAGAGCUGAGCAUCAGUGGCCUUAGCAUUAUAUGUAAAGGCAAUGCUACUUGCAAGUUUCCCAUCAUAUAACACCUGUUUAUGAUGUUCUGCCAAAUGAAUAUCACUCAACAGAGGAUUGAGCAUCA
B14: chr19:8913615:8913616:-_ENSMUSG00000071658_ENSMUST00000096259|mus_hu|mus_mus_mus_hu_False|68_108 (ssRNA)
RNA: GGGAGUUCUACAGUCCGACGAUCAGGGGGGCACCAACUUCUGCCUGAAAUGGGUGCCCCACCCAGUCAGGACUUGGAGCUGAAAGUAUCUGAUGCAGAAGCAGUGACUAUACGAAAGGAGGCCCCUGGGGAGGGCCAGGCCAGCAACAGAGGAUUGAGCAUCA

molecular target: T1, UNK ZnF1-3 (human, UniProt Q9C0B0 31-174); experiment: nsRBNS (natural sequence RNA bind-n-seq); RBNS binding buffer (assumed for nsRBNS): 25 mM Tris pH 7.5, 150 mM KCl, 3 mM MgCl2, 0.01% Triton X-100, 500 ug/ml BSA, 20 U/ml SUPERase-In, 4 C; UNK is unkempt and MSI1 is Musashi-1; names of the RNAs are library labels; protein concentration not given here; high values mean tight binding
T1 sequence: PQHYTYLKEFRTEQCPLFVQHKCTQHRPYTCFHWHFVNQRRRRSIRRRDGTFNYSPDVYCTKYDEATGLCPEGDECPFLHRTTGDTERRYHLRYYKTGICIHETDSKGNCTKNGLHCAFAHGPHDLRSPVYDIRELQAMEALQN

Row | Binder | binding signal [enrichment R]
1 | B1 | 0.534
2 | B2 | 0.365
3 | B3 | 0.555
4 | B4 | 1.17
5 | B5 | 0.77
6 | B6 | 0.909
7 | B7 | 0.905
8 | B8 | 0.99
9 | B9 | 0.758
10 | B10 | 0.631
11 | B11 | 1.34
12 | B12 | 0.487
13 | B13 | 1.29
14 | B14 | 1.22
